Reference: PubChem BioAssay AID686978 (National Center for Advancing Translational Sciences (NCATS), 2013)
Several values for one entry are separate records, joined by “and”; a condition that tells them apart may be missing. Equal values may be shown once. In all, about 420,000 compounds went through this assay and about 64,000 (15%) were called active. Inconclusive results, whose numbers are uncertain, are shown with a selection of clear calls. The call rests on the fitted dose curve; in most records, active means well fitted inhibition curve with a large enough effect; inconclusive means small, poorly fitted or top-dose-only effect; inactive means flat fitted curve, though single readings scatter. A potency beside an inconclusive call is a rough fit, not a confirmed value.

Assay: qHTS for Inhibitors of human tyrosyl-DNA phosphodiesterase 1 (TDP1): qHTS in cells in absence of CPT; further: nearly all actives have a fitted effect of over 55% in size
Settings: DT40 Tdp1-/- hTDP1 cells, no CPT, ATP luminescence, 48 h; activity change, negative = growth inhibition: at 46.2 µM (top of the series) unless noted
Procedure, shortened: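 Compound effects on proliferation are scored in DT40 Tdp1-/-;hTDP1 cells in the absence of CPT. ATP levels (CellTiter-Glo luminescence) are recorded after a ≥48 hr, 37 °C incubation.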
On the % scale 0 is the no-effect control and ±100 the full control effect; potency means the concentration at half of the fitted maximal effect; tags describe the fitted curve by direction and shape.

Row | SMILES | Potency | activity change, negative = growth inhibition
1 | COc1cc(C(=O)Nc2nc3ccccc3s2)ccc1OCc1c(C)noc1C | inconclusive: 35.5 µM [inhibitor, single point] | –
2 | COc1cccc(C(=O)NC(=S)N2c3ccccc3CC2C)c1OC (stereo not given) | inconclusive: 29.1 µM [inhibitor, single point] | –
3 | N#C/C(=C\c1cccnc1)c1ccccc1[N+](=O)[O-] | inconclusive: 9.2 µM [inhibitor, partial curve, poor fit] | –
4 | O=C(NCc1ccccc1)c1ccc(Oc2ccc(C(=O)NCc3ccccc3)cc2)cc1 | active: 16.4 µM | –
5 | O=C(CCN1C(=O)c2ccccc2C1=O)N1CCC(c2ccccc2)C1 (stereo not given) | inactive | –
6 | COc1cccc2cccc(/C=N/n3cnnc3)c12 | inactive | –
7 | CC(C)c1ccc2c(c1)CCC1C(C)(C(N)=O)CCCC21C (stereo not given) | inconclusive: 29.1 µM [inhibitor, single point] | –
8 | Cc1cccc(N2CCN(C(=O)c3ccnn3C)CC2)c1C | inactive | –
9 | CCOC(=O)Cc1csc(NC(=O)c2ccc(Cl)s2)n1 | inconclusive: 23.1 µM [inhibitor, partial curve, poor fit] | –
10 | COc1cccc2sc(N3CCN(C(=O)c4cccs4)CC3)nc12 | inactive | –
11 | Nc1cc(N)c(OCC(F)(F)F)cc1OCC(F)(F)F | active: 9.2 µM | –
12 | COc1ccc(-c2ccc3c(c2)S(=O)(=O)c2cccc(C(=O)NCc4cc(C)oc4C(F)(F)F)c2C3=O)cc1OC | inconclusive: 18.4 µM [inhibitor, single point] | –
13 | CC(C)c1ccc(C2c3[nH]c4ccccc4c3C[C@H]3C(=O)N(c4ccccc4C(=O)N4CCC[C@H]4C(=O)O)C(=O)N23)cc1 (stereo not given in full) | inactive | –
14 | CSc1ccc(CCNC(=O)c2nn(C)c3c2CS(=O)(=O)c2ccccc2-3)cc1 | inconclusive: 29.1 µM [inhibitor, single point] | –
15 | O=C(CCN1C(=O)S/C(=C\c2ccccc2)C1=O)N1CCOCC1 | inactive | –
16 | CCOC(=O)N1CCC(NC(=O)c2ccc3c(c2)N(C)C(=O)/C(=C/c2cccc(OC)c2)S3)CC1 | active: 18.4 µM | –
17 | CCOc1ccc(CNS(=O)(=O)c2cc(-c3cc(C)no3)ccc2OC)cc1OC | inactive | –
18 | O=C(Nc1cccc(Cl)c1)c1nc[nH]c1C(=O)NCCCNC(=O)c1[nH]cnc1C(=O)Nc1cccc(Cl)c1 | inconclusive: 2.91 µM [inhibitor, full curve, poor fit] | –
19 | CCOC(=O)C1=CCN(S(=O)(=O)c2ccc(C)cc2)C1c1ccc(C)cc1 (stereo not given) | inconclusive: 20.6 µM [inhibitor, single point] | –
20 | COc1ccc(N2CCN(C(=O)c3cc(-c4ccc(F)cc4)[nH]c3C)CC2)cc1 | inactive | –
21 | O=C(CCc1ccc(S(=O)(=O)N2CCOCC2)cc1)Nc1c(F)cccc1F | inactive | –
22 | COC(=O)C1=C(C)N(CCC2=CCCCC2)C(=O)C1 | inconclusive: 29.1 µM [inhibitor, single point] | –
23 | CCN(CC(=O)Nc1c(F)cccc1F)C(=O)c1ccc(-c2ccc(C(C)=O)cc2)o1 | inactive | –
24 | Cc1ccc(/C=C/C(=O)Nc2ccc([N+](=O)[O-])cc2)o1 | inconclusive: 23.1 µM [inhibitor, single point] | –

Row | SMILES | Potency | activity change, negative = growth inhibition
25 | Cc1ccccc1/C=N/NC(=O)Cn1cnc([N+](=O)[O-])n1 | inactive | –
26 | Cc1ccc(S(=O)(=O)N2CCC(C(=O)N/N=C/c3ccncc3)CC2)cc1 | inactive | –
27 | CC1CCCCN1C(=O)CSc1nc2cc3c(cc2c(=O)n1Cc1ccc2c(c1)OCO2)OCO3 (stereo not given) | active: 23.1 µM | –
28 | COc1ccc(-c2csc(C3=C(O)CN(Cc4ccc(Cl)cc4)C3=N)n2)cc1OC | inactive | –
29 | O=C(Nc1ccccc1)N1CCC2(CC1)CCN(C(=O)c1cccc(F)c1)CC2 | inconclusive: 29.1 µM [inhibitor, single point] | –
30 | CN(C)c1ccc(-c2ccc([C@H]3[C@@H]4C=CCC[C@@]4(C)C(=O)N3Cc3ccccc3)c(F)c2)cc1 | active: 18.4 µM | –
31 | CCOC(=O)c1c(S(=O)(=O)NCCc2ccccc2)c(C)n(C)c1C | inconclusive: 29.1 µM [inhibitor, single point] | –
32 | Cc1cc(C)nc(Nc2nc(=O)c3ccccc3s2)n1 | active: 20.6 µM | –
33 | C=CCn1c(C)cc(C2=NNC(=Nc3ccc(C)cc3)SC2)c1C | inconclusive: 7.31 µM [inhibitor, partial curve] | –
34 | CCOC(=O)c1[nH]c(C)c(C(=O)N2CCN(c3ccccc3OC)CC2)c1C | inconclusive: 29.1 µM [inhibitor, single point] | –
35 | O=C(NC1CCCCC1)/C(=C/c1ccc(Cl)cc1)NC(=O)c1ccccc1 | inconclusive: 20.6 µM [inhibitor, single point] | –
36 | CCN(CC)S(=O)(=O)c1ccc(C(=O)NCC(=O)N/N=C/c2ccccc2OC)cc1 | inactive | –
37 | CC(C)c1ccccc1NC(=O)COC(=O)c1c2c(nc3ccccc13)CCN(Cc1ccccc1)C2 | active: 10.3 µM | –
38 | CC1(C)Cc2ccccc2-c2nnc(-c3cccnc3)n21 | – | inconclusive: -18.8% [inhibitor]
39 | CC(=O)c1cccc(NS(=O)(=O)c2ccc(NC(=O)N3CCCCC3)cc2)c1 | active: 9.2 µM | –
40 | Cc1cc(C(=O)C[N+]2(C)CCOCC2)c(C)n1-c1ccc(Br)cc1 | inconclusive: 14.6 µM [inhibitor, single point] | –
41 | COc1ccc(/C=N/NC(=O)c2cc(-c3ccccc3)nc3ccccc23)c(OC)c1 | inconclusive: 9.2 µM [inhibitor, partial curve, poor fit] | –
42 | Cc1cccc(N2CCN(C(=O)C3CC(=O)N(C4CCCC4)C3)CC2)c1C (stereo not given) | active: 23.1 µM | –
43 | COC(=O)[C@@]12CCCN1[C@H](c1ccc(-c3cccc(Cl)c3)cc1)[C@H]1C(=O)N(C)C(=O)[C@H]12 | active: 9.2 µM | –
44 | CCN(CC)S(=O)(=O)c1ccc(C(=O)Oc2ccc3c(c2)OCO3)cc1 | – | inconclusive: -31.9% [inhibitor]
45 | CCCCSc1nnc(-c2ccccc2N)c(=O)[nH]1 | inconclusive: 23.1 µM [inhibitor, single point] | –
46 | Cc1cc(C)nc(Nc2n[nH]c(-c3ccc(C(C)(C)C)cc3)n2)n1 | inconclusive: 18.4 µM [inhibitor, single point] | –
47 | N/C(=N\OC(=O)Cc1ccc(-c2ccccc2)cc1)c1cccnc1 | inactive | –
48 | CCCCCCC(=O)Nc1nc(C)c(-c2csc(Nc3cc(OC)ccc3OC)n2)s1 | active: 18.4 µM | –

Row | SMILES | Potency | activity change, negative = growth inhibition
49 | CC1CCN(CC(=O)N2c3ccccc3CCc3ccccc32)CC1 | inconclusive: 10.3 µM [inhibitor, single point] | –
50 | C=CCN(Cc1cc(OC)ccc1OC)C(=O)c1cc2ccc(OC)cc2[nH]1 | inconclusive: 23.1 µM [inhibitor, partial curve] | –
51 | COc1ccccc1-c1nc(C#N)c(N2CCN(c3cccc(Cl)c3)CC2)o1 | inconclusive: 25.9 µM [inhibitor, single point] | –
52 | C=CCC[C@@H](Cc1ccc(F)cc1)C(=O)OC[C@H](C)NC(=O)[C@@H](CC=C)CC(=O)N(CCO)Cc1ccccc1 | active: 20.6 µM | –
53 | S=c1nc(C2CC2)[nH]c2ccccc12 | inconclusive: 29.1 µM [inhibitor, single point] | –
54 | CCOC(=O)C1CCCN(S(=O)(=O)c2cc(-c3cc(C)no3)ccc2C)C1 (stereo not given) | inconclusive: 25.9 µM [inhibitor, single point] | –
55 | CCO[C@H]1OC(C(=O)NCc2nc3ccccc3[nH]2)=C[C@@H](c2ccc(Br)cc2)[C@@H]1CCCO | inconclusive: 29.1 µM [inhibitor, single point] | –
56 | Cc1cccc(N(C)c2nc3ccc(C)cc3n3nnnc23)c1 | inconclusive: 23.1 µM [inhibitor, single point] | –
57 | CCC(=O)N1c2ccc(S(=O)(=O)N3CCN(c4ccccc4Cl)CC3)cc2CC1C (stereo not given) | inconclusive: 29.1 µM [inhibitor, single point] and inconclusive: 25.9 µM [inhibitor, single point] | –
58 | CCOC(=O)c1nnsc1Nc1ccc(C)c(C)c1 | – | inconclusive: -36.6% [inhibitor]
59 | Cc1ccc(CNC(=O)C2CCN(c3ncnc4c3nc3n4CCCCC3)CC2)cc1 | inactive | –
60 | CCN(CC)S(=O)(=O)c1ccc2c(c1)c(=O)c(C(=O)NCc1ccco1)cn2C | inconclusive: 29.1 µM [inhibitor, single point] | –
61 | O=c1[nH]c2ccccc2nc1/C=C/c1ccc(O)cc1 | active: 14.6 µM | –
62 | COc1ccc(NC(=S)Nc2ccc(S(N)(=O)=O)cc2)c(C)c1 | inactive | –
63 | CCCOc1ccc(C2C(=O)N(C3CCCCC3)CC(=O)N2CCCOCC)cc1OC (stereo not given) | inactive | –
64 | O=C(/C=C\Nc1ccccc1Br)c1ccc2c(c1)OCO2 | inconclusive: 11.6 µM [inhibitor, partial curve] | –
65 | COC(=O)c1ccc(OCC2NCCc3cc(OC)c(OC)cc32)cc1 (stereo not given) | inconclusive: 29.1 µM [inhibitor, single point] | –
66 | CC1=C(C(=O)Nc2ccccc2F)C(c2ccsc2)C2=C(CC(C)(C)CC2=O)N1 (stereo not given) | inconclusive: 29.1 µM [inhibitor, single point] | –
67 | Cc1ccc(-c2nnn(CC(=O)N(CC(=O)NC3CCCC3)c3ccc(F)c(Cl)c3)n2)o1 | inconclusive: 23.1 µM [inhibitor, single point] | –
68 | CCSc1nc2c(c(=O)n1Cc1ccccc1)SC(C)C2 (stereo not given) | inconclusive: 12.6 µM [inhibitor, single point] | –
69 | C=CCCC(=O)Nc1nc(C)c(-c2csc(Nc3cc(OC)ccc3OC)n2)s1 | active: 2.59 µM | –
70 | CC(=O)Nc1ccc(NC(=O)c2cccc(S(=O)(=O)N3CCCCCC3)c2)cc1 | inconclusive: 20.6 µM [inhibitor, single point] | –
